Source: PubChem BioAssay AID652104 (National Center for Advancing Translational Sciences (NCATS), 2013)
The campaign covered roughly 410,000 compounds. About 7,200 (1.8%) were called active. The shares of active, inactive and inconclusive entries below differ from those in the screen. Calls come from the whole dose curve; as a rule, active = well fitted activation curve with a large enough effect; inconclusive = small, poorly fitted or top-dose-only effect, or another doubt; inactive = no such curve, though single readings can be large or run the other way. No potency is given beside an inconclusive call; the fits are too rough.

Test: qHTS of TDP-43 Inhibitors; note: nearly all actives have a fitted effect of over 50% in size; for growth rescue (activation): % of control where 0% means no effect
Settings: TDP-43 expressing yeast growth rescue, BacTiter-Glo, 24 h; growth rescue (activation): at 46.1 µM (top of the series) unless noted
Summary of the method: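 Luminescence from BacTiter-Glo reports growth of TDP-43-expressing yeast after 24 hr at 30 deg C with compound. Cells were raffinose-pregrown to mid-log, then seeded in galactose medium at OD600=0.02.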
Potency is the fitted concentration of half-maximal effect; tags give direction and shape of the fitted curve.

Row | SMILES | growth rescue (activation) | Potency
1 | COc1ccc(S(=O)(=O)Nc2cccc3c2O[C@H](CN(C)S(=O)(=O)c2ccccc2)[C@@H](C)CN([C@H](C)CO)C3=O)cc1 | inactive: 8.43% | –
2 | O=C(NCC1CCCO1)c1ccccc1OCc1ccc(Cl)cc1 (stereo not given) | – | inconclusive [activator, single point]
3 | O=C1c2ccsc2SCCN1Cc1c(Cl)cccc1Cl | inactive: 18.1% | –
4 | O=C1c2ccccc2C(=O)N1CCC#C/C=C1\c2ccccc2C(=O)N1c1ccccc1 | – | inconclusive [activator, full curve]
5 | COc1ccc(-c2nc(C#N)c(N3CCc4ccccc4C3)o2)cc1OC | – | inconclusive [activator, single point]
6 | Cc1cccn2c(=O)c3cc(C(=O)NC4CCCC4)sc3nc12 | – | inconclusive [activator, single point]
7 | CN(CC(=O)NC1CCCCCCC1)S(=O)(=O)c1cccc2cccnc12 | – | inconclusive [activator, partial curve]
8 | CC(C)CNC(=S)N1CCC(C(=O)c2ccc(Cl)cc2)CC1 | – | inconclusive [activator, single point]
9 | O=C1/C(=C/c2ccncc2)CCc2ccccc21 | – | inconclusive [activator, single point]
10 | COc1ccc(C2CC(C)(c3ccc(OC)cc3OC)Nc3ccccc3N2)c(OC)c1 (stereo not given) | inactive: -20.3% | –
11 | COc1ccc(C(=O)NC(=S)NNC(=O)Cc2cccs2)cc1 | – | active: 10 µM
12 | O=c1[nH]cnc2c1ncn2C1CCC(CO)O1 (stereo not given) | – | inconclusive [activator, single point]
13 | CC1CCC2(CC1)NC(=O)N(CC(=O)N1CCN(C(=O)c3ccco3)CC1)C2=O (stereo not given) | – | inconclusive [activator, partial curve]
14 | Cc1ccc(-c2ccc3c(c2)O[C@H](CN(C)C(=O)Nc2ccc(C(F)(F)F)cc2)[C@H](C)CN([C@H](C)CO)S3(=O)=O)cc1 | – | inconclusive [activator, single point]
15 | CCOC(=O)c1c(C)oc2ncnc(Nc3ccc(OC)cc3OC)c12 | – | inconclusive [activator, partial curve]
16 | CCOC(=O)c1c(-c2ccc(C)o2)csc1NC(=O)CSc1nncs1 | – | inconclusive [activator, single point]
17 | CCN1C(=O)[C@H]2[C@@H](c3ccc(-c4ccc(F)cc4)cc3)N3CCCC[C@@]3(C(=O)OC)[C@H]2C1=O | – | inconclusive [activator, single point]
18 | Clc1ccc(OCc2nn3c(C4CCCCC4)nnc3s2)cc1 | – | active: 20 µM
19 | Cc1cccc2cc(C#N)c(N3CCCC3)nc12 | – | inconclusive [activator, single point]
20 | COCc1cc(C)nc2sc(C(=O)Nc3ccccc3OC)c(N)c12 | – | inconclusive [activator, partial curve]
21 | Cn1nnc2cc(C(=O)Nc3ccc(Cl)cc3)ccc21 | – | inconclusive [activator, partial curve]
22 | CCOC(=O)Cn1c(=NC(=O)CN2C(=O)CCC2=O)sc2cc(S(N)(=O)=O)ccc21 | inactive: -15.7% | –
23 | Cc1cc(F)ccc1S(=O)(=O)Nc1ccc2oc3c(c2c1)CC(C)CC3 (stereo not given) | – | active: 35.5 µM
24 | CC(C)C[C@@H]1Cc2[nH][nH]c(=O)c2[C@H](CCc2ccccc2)O1 | inactive: 6.76% | –

Row | SMILES | growth rescue (activation) | Potency
25 | S=C(NC1CC1)N1CCN(c2ccc(Cl)cc2)CC1 | – | inconclusive [activator, partial curve]
26 | Cc1nc2ccn(Cc3ccccc3)c(=O)c2cc1C(=O)N1CCN(c2ccccc2F)CC1 | inconclusive: 10.6% [activator] | –
27 | Clc1ccc(CSc2nnc(-c3ccncc3)s2)cc1 | – | inconclusive [activator, single point]
28 | COc1ccccc1CN(C)CC(=O)Nc1cccc(S(=O)(=O)N2CCCCC2)c1 | – | active: 3.16 µM
29 | CCOC(=O)N1CCN(c2ccc([N+](=O)[O-])cc2F)CC1C (stereo not given) | – | inconclusive [activator, single point]
30 | Cc1cccc(C(=O)O/N=C/c2ccc(Br)cc2)c1 | – | inconclusive [activator, single point]
31 | COc1ccccc1Nc1nc2nonc2nc1N1CCCCC1C (stereo not given) | – | inconclusive [activator, partial curve]
32 | COc1ccccc1N1CCN(C(=O)c2cn(CC(C)C)c(=O)c3c2c2ccccc2n3C)CC1 | – | inconclusive [activator, full curve]
33 | O=C(CSCc1cnn(-c2ccccc2)c1-n1cccc1)NCc1ccc(Cl)cc1 | – | inconclusive [activator, single point]
34 | Cc1ccc(-n2c(SCc3ccc(C#N)cc3)nnc2-c2ccccn2)cc1 | – | inconclusive [activator, single point]
35 | CCC(=O)c1ccc(N2CCN(C(=O)c3ccccc3Br)CC2)c(F)c1 | inactive: 10.3% [at 9.22 µM] | –
36 | C=CCNC(=S)NC(=O)c1csc([N+](=O)[O-])c1 | – | inconclusive [activator, partial curve]
37 | Cc1cccc2c(C(=O)N3CCCCC3)cc(-c3ccccc3)nc12 | – | inconclusive [activator, single point]
38 | O=C(c1cccc(N2C(=O)c3ccccc3C2=O)c1)N1CCCC(C(F)(F)F)C1 (stereo not given) | inconclusive: 53.8% [activator] | –
39 | CC(C)n1cnc2c(Nc3ccc(F)c(Cl)c3)nc(NCCO)nc21 | – | inconclusive [activator, full curve]
40 | N#CCc1ccc(NC(=O)c2cc(S(=O)(=O)N3CCOCC3)ccc2Cl)cc1 | – | inconclusive [activator, partial curve]
41 | Oc1ccc(-c2csc(NCc3ccco3)n2)cc1 | – | inconclusive [activator, partial curve]
42 | CCOC(=O)c1cc(S(=O)(=O)NCc2ccc(C)cc2)[nH]n1 | inactive: 9.2% | –
43 | COc1ccc(CCC(=O)N2CCc3ccccc32)cc1 | – | inconclusive [activator, partial curve]
44 | COc1cccc(C(NC(C)=O)c2nc(-c3csc4ccccc34)cs2)c1 (stereo not given) | – | inconclusive [activator, single point]
45 | Cc1ccc2nc(-c3ccc(C#N)cc3)c(Cc3cccc(Cl)c3)n2c1 | – | active: 35.5 µM
46 | O=C(Nc1ccc(Cl)cc1)c1nc[nH]c1C(=O)Nc1ccccc1F | – | inconclusive [activator, partial curve]
47 | COc1ccc(/C(N)=N/OC(=O)Cc2ccccc2[N+](=O)[O-])cc1 | – | inconclusive [activator, single point]
48 | CC(c1ccccc1)n1cnc2ccccc2c1=O (stereo not given) | – | inconclusive [activator, single point]

Row | SMILES | growth rescue (activation) | Potency
49 | CCn1c(-c2ccccc2)c[nH]c1=S | inactive: 5.49% | –
50 | O=C(NC1=NCCS1)c1cc(-c2cccc(Br)c2)nc2ccccc12 | – | active: 22.4 µM
51 | Cc1cc(C)n(CC(C)NC(=O)c2cc(COc3c(F)cccc3F)on2)n1 (stereo not given) | – | inconclusive [activator, single point]
52 | c1ccc(OCc2nn3c(-c4ccncc4)nnc3s2)cc1 | inactive: -14.6% | –
53 | O=C(COc1c(F)c(F)c(C(F)(F)F)c(F)c1F)Nc1ccc(N2CCOCC2)c(Cl)c1 | – | inconclusive [activator, single point]
54 | CCCCCCCNC(=O)c1ccc(N2CCC3(CC2)OCCO3)c([N+](=O)[O-])c1 | – | inconclusive [activator, single point]
55 | CCOc1ccc(NC(=O)CN(C)Cc2cc(=O)n3c(-c4ccccc4)csc3n2)cc1OCC | inactive: 0.347% | –
56 | CC(C)NC(=O)c1nn(-c2ccccc2F)nc1CO | inactive: 2.75% | –
57 | COCc1cc(C)nc2sc(C(=O)Nc3cccc(OC)c3)c(N)c12 | – | inconclusive [activator, partial curve]
58 | COc1ccccc1CNC(=O)CCC1N=C2c3ccccc3N=C(SCc3ccc(C)cc3C)N2C1=O (stereo not given) | – | inconclusive [activator, partial curve]
59 | CCOc1ccccc1OCCCC(=O)N1CCN(S(=O)(=O)c2ccc(Cl)cc2)CC1 | inactive: 14.4% | –
60 | CCN1C(=O)CSC1=Nc1ccccc1Cl | – | inconclusive [activator, single point]
61 | CC(C)(C)C1CCc2nc(NC(=O)Cc3cn4ccsc4n3)sc2C1 (stereo not given) | – | active: 15.8 µM
62 | Fc1cccc(-n2ncc3c2ncn2nc(Cc4ccccc4)nc32)c1 | inactive: 25.2% | –
63 | O=C(c1ccccc1)N1CCN(c2ncccn2)CC1 | inactive: 0% | –
64 | COc1ccc(NC(=O)c2ccc(OC)c(S(=O)(=O)N3CCCCC3C)c2)cn1 (stereo not given) | inactive: 5.8% | –
65 | Cc1ccc2nc3sc(C(=O)NCCCN(C)c4ccccc4)cc3cc2c1 | – | inconclusive [activator, partial curve]
66 | COCCNc1nc(Oc2cccc(NC(C)=O)c2)c2sc(-c3ccccc3)cc2n1 | inactive: 34.4% | –
67 | COc1cccc(NC(=O)C(=S)NC2CCCCC2)c1 | – | inconclusive [activator, single point]
68 | Cc1cccc(N2CCN(C(=O)CNC(=O)C3CCCCC3)CC2)c1C | – | inconclusive [activator, single point]
69 | CCOC(CNC(=O)c1[nH]c(C(F)(F)F)nc1-c1ccccc1)OCC | – | inconclusive [activator, single point]
70 | O=C(Nc1ccccc1N1CCOCC1)c1ccc2ccccc2n1 | – | active: 12.6 µM
